What is called Ki is a measure of affinity in units of concentration, obtained from inhibition or displacement.

The target in one assay is Recombinant heterodimeric HCV NS3/NS4A protease (strain 1a) (Hepatitis C virus genotype 1a, UniProt P27958). In words: Spectrophotometric assay for HCV protease inhibitory activity (chromogenic ester substrates). Conditions: Table 1: Ketones; read-out: Ki* Range. The format is biochemical. From the text: The present invention relates to novel HCV protease inhibitors. This utility can be manifested in their ability to inhibit the HCV NS2/NS4a serine protease.
Assay for HCV Protease Inhibitory Activity:
Spectrophotometric Assay: Spectrophotometric assay for the HCV serine protease can be performed on the inventive compounds by following the procedure described by R. Zhang et al, Analytical Biochemistry, 270 (1999) 268-275, the disclosure of which is incorporated herein by reference. The assay based on the proteolysis of chromogenic ester substrates is suitable for the continuous monitoring of HCV NS3 protease activity. The substrates are derived from the P side of the NS5A-NS5B junction sequence (Ac-DTEDVVX(Nva), where X=A or P) whose C-terminal carboxyl groups are esterified with one of four different chromophoric alcohols (3- or 4-nitrophenol, 7-hydroxy-4-methyl-coumarin, or 4-phenylazophenol). Illustrated below are the synthesis, characterization and application of these novel spectrophotometric ester substrates to high throughput screening and detailed kinetic evaluation of HCV NS3 protease inhibitors. Materials and Methods:
Materials: Chemical reagents for assay related buffers are obtained from Sigma Chemical Company (St. Louis, Mo.). Reagents for peptide synthesis were from Aldrich Chemicals, Novabiochem (San Diego, Calif.), Applied Biosystems (Foster City, Calif.) and Perseptive Biosystems (Framingham, Mass.). Peptides are synthesized manually or on an automated ABI model 431A synthesizer (from Applied Biosystems). UVNIS Spectrometer model LAMBDA 12 was from Perkin Elmer (Norwalk, Conn.) and 96-well UV plates were obtained from Corning (Corning, N.Y.). The prewarming block can be from USA Scientific (Ocala, Fla.) and the 96-well plate vortexer is from Labline Instruments (Melrose Park, Ill.). A Spectramax Plus microtiter plate reader with monochrometer is obtained from Molecular Devices (Sunnyvale, Calif.).
Protein concentrations are determined by the Biorad dye method using recombinant HCV protease standards previously quantified by amino acid analysis. Prior to assay initiation, the enzyme storage buffer (50 mM sodium phosphate pH 8.0, 300 mM NaCl, 10% glycerol, 0.05% lauryl maltoside and 10 mM DTT) is exchanged for the assay buffer (25 mM MOPS pH 6.5, 300 mM NaCl, 10% glycerol, 0.05% lauryl maltoside, 5 μM EDTA and 5 μM DTT) utilizing a Biorad Bio-Spin P-6 prepacked column. Substrate Synthesis and Purification: The synthesis of the substrates is done as reported by R. Zhang et al, (ibid.) and is initiated by anchoring Fmoc-Nva-OH to 2-chlorotrityl chloride resin using a standard protocol (K. Barlos et al, Int. J. Pept. Protein Res., 37 (1991), 513-520). The peptides are subsequently assembled, using Fmoc chemistry, either manually or on an automatic ABI model 431 peptide synthesizer. […] The combined filtrate and DCM wash is evaporated azeotropically (or repeatedly extracted by aqueous Na2CO3 solution) to remove the acid used in cleavage. The DCM phase is dried over Na2SO4 and evaporated.
The ester substrates are assembled using standard acid-alcohol coupling procedures (K. Holmber et al, Acta Chem. Scand., B33 (1979) 410-412). Peptide fragments are dissolved in anhydrous pyridine (30-60 mg/ml) to which 10 molar equivalents of chromophore and a catalytic amount (0.1 eq.) of para-toluenesulfonic acid (pTSA) were added. Dicyclohexylcarbodiimide (DCC, 3 eq.) is added to initiate the coupling reactions. Product formation is monitored by HPLC and can be found to be complete following 12-72 hour reaction at room temperature. Pyridine solvent is evaporated under vacuum and further removed by azeotropic evaporation with toluene.
On to `CC(C)[C@H](NC(=O)N[C@H](C(=O)N1C[C@H]2[C@@H]([C@H]1C(=O)NC(CC1CC1)C(=O)C(N)=O)C2(C)C)C(C)(C)C)C(=O)c1ccccc1` (some centres unmarked) [compound 4010], for which the Ki was less than 75 nM.

On to `CC(C)[C@H](NC(=O)N[C@H](C(=O)N1C[C@H]2[C@@H]([C@H]1C(=O)NC(CC1CC1)C(=O)C(N)=O)C2(C)C)C(C)(C)C)C(=O)Cc1ccccc1` (some centres unmarked) [compound 4011], for which the Ki was less than 75 nM.

Turning to `COc1ccc(C(=O)[C@@H](NC(=O)N[C@H](C(=O)N2C[C@H]3[C@@H]([C@H]2C(=O)NC(CC2CC2)C(=O)C(N)=O)C3(C)C)C(C)(C)C)C(C)C)cc1` (some centres unmarked) [compound 4012], the Ki is less than 75 nM.

In the case of `CC(C)[C@H](NC(=O)N[C@H](C(=O)N1C[C@H]2[C@@H]([C@H]1C(=O)NC(CC1CC1)C(=O)C(N)=O)C2(C)C)C(C)(C)C)C(=O)C1CC1` (some centres unmarked) [compound 4016], the inhibition constant Ki is less than 75 nM.

Take `CC(C)[C@H](NC(=O)N[C@H](C(=O)N1C[C@H]2[C@@H]([C@H]1C(=O)NC(CC1CCC1)C(=O)C(N)=O)C2(C)C)C(C)(C)C)C(=O)c1ccccn1` (some centres unmarked) [compound 4017]: the Ki was less than 75 nM.

As to `CC(C)[C@H](NC(=O)N[C@H](C(=O)N1C[C@H]2[C@@H]([C@H]1C(=O)NC(CC1CC1)C(=O)C(N)=O)C2(Cl)Cl)C(C)(C)C)C(=O)C1CC1` (some centres unmarked) [compound 4018], the Ki is less than 75 nM.

As for `CC(C)[C@H](NC(=O)N[C@H](C(=O)N1C[C@H]2[C@@H]([C@H]1C(=O)NC(CC1CC1)C(=O)C(N)=O)C2(C)C)C(C)(C)C)C(=O)c1nccs1` (some centres unmarked) [compound 4021], the inhibition constant (Ki) is less than 75 nM.

Consider `CC(C)[C@H](NC(=O)N[C@H](C(=O)N1C[C@H]2[C@@H]([C@H]1C(=O)NC(CC1CC1)C(=O)C(N)=O)C2(C)C)C(C)(C)C)C(=O)c1ccccn1` (some centres unmarked) [compound 4022], for which the inhibition constant (Ki) was less than 75 nM.

With `CC(C)(C)[C@H](NC(=O)N[C@H](C(=O)C1CC1)C1CCCCC1)C(=O)N1C[C@H]2[C@@H]([C@H]1C(=O)NC(CC1CC1)C(=O)C(N)=O)C2(C)C` (some centres unmarked) [compound 4023], the Ki is less than 75 nM.

`CC1(C(=O)[C@@H](NC(=O)N[C@H](C(=O)N2C[C@H]3[C@@H]([C@H]2C(=O)NC(CC2CC2)C(=O)C(N)=O)C3(C)C)C(C)(C)C)C2CCCCC2)CC1` (some centres unmarked) [compound 4025]: the inhibition constant (Ki) was less than 75 nM.

Regarding `CC(C)[C@H](NC(=O)N[C@H](C(=O)N1C[C@H]2[C@@H]([C@H]1C(=O)NC(CC1CC1)C(=O)C(N)=O)C2(C)C)C(C)(C)C)C(=O)c1cccs1` (some centres unmarked) [compound 4026], the Ki is less than 75 nM.

For `Cc1ccc(C(=O)[C@@H](NC(=O)N[C@H](C(=O)N2C[C@H]3[C@@H]([C@H]2C(=O)NC(CC2CC2)C(=O)C(N)=O)C3(C)C)C(C)(C)C)C(C)C)cc1` (some centres unmarked) [compound 4027], the Ki is less than 75 nM.

With `CC(C)[C@H](NC(=O)N[C@H](C(=O)N1C[C@H]2[C@@H]([C@H]1C(=O)NC(CC1CC1)C(=O)C(N)=O)C2(C)C)C1CCCCC1)C(=O)c1ccccc1` (some centres unmarked) [compound 4028], the Ki is less than 75 nM.

`CC(C)[C@H](NC(=O)N[C@H](C(=O)N1C[C@H]2[C@@H]([C@H]1C(=O)NC(CC1CC1)C(=O)C(N)=O)C2(C)C)C(C)(C)C)C(=O)c1ccc(N(C)C)cc1` (some centres unmarked) [compound 4029]: the Ki was less than 75 nM.

With `Cc1csc(C(=O)[C@@H](NC(=O)N[C@H](C(=O)N2C[C@H]3[C@@H]([C@H]2C(=O)NC(CC2CC2)C(=O)C(N)=O)C3(C)C)C(C)(C)C)C(C)C)n1` (some centres unmarked) [compound 4030], the Ki is less than 75 nM.

Take `CC(C)[C@H](NC(=O)N[C@H](C(=O)N1C[C@H]2[C@@H]([C@H]1C(=O)NC(CC1CC1)C(=O)C(N)=O)C2(Cl)Cl)C(C)(C)C)C(=O)c1ccccc1` (some centres unmarked) [compound 4031]: the Ki was less than 75 nM.

Turning to `C#CCCC(NC(=O)[C@@H]1[C@@H]2[C@H](CN1C(=O)[C@@H](NC(=O)N[C@H](C(=O)C1CC1)C1CCCCC1)C(C)(C)C)C2(C)C)C(=O)C(=O)NCC=C` (some centres unmarked) [compound 4032], the Ki was less than 75 nM.

On to `C#CCCC(NC(=O)[C@@H]1[C@@H]2[C@H](CN1C(=O)[C@@H](NC(=O)N[C@H](C(=O)c1nccs1)C1CCCCC1)C(C)(C)C)C2(C)C)C(=O)C(=O)NCC=C` (some centres unmarked) [compound 4034], for which the Ki was less than 75 nM.

Consider `CC(C)(C)[C@H](NC(=O)N[C@H](C(=O)c1ccccc1)C1CCCCC1)C(=O)N1C[C@H]2[C@@H]([C@H]1C(=O)NC(CC1CC1)C(=O)C(N)=O)C2(C)C` (some centres unmarked) [compound 4035], for which the Ki is less than 75 nM.

Take `CC(C)[C@@H](CC(=O)C1CC1)NC(=O)N[C@H](C(=O)N1C[C@H]2[C@@H]([C@H]1C(=O)NC(CC1CC1)C(=O)C(N)=O)C2(C)C)C(C)(C)C` (some centres unmarked) [compound 4037]: the Ki was less than 75 nM.

Turning to `CC(C)[C@H](NC(=O)N[C@H](C(=O)N1C[C@H]2[C@@H]([C@H]1C(=O)NC(CC1CC1)C(=O)C(N)=O)C2(C)C)C(C)(C)C)C(=O)c1ccccc1O` (some centres unmarked) [compound 4038], the Ki was less than 75 nM.

Take `C=CCNC(=O)C(=O)C(CCC)NC(=O)[C@@H]1[C@@H]2[C@H](CN1C(=O)[C@@H](NC(=O)N[C@H](C(=O)C1CC1)C1CCCCC1)C(C)(C)C)C2(C)C` (some centres unmarked) [compound 4039]: the inhibitory constant (Ki) was less than 75 nM.

In the case of `CC1(C)[C@@H]2[C@@H](C(=O)NC(CC3CC3)C(=O)C(N)=O)N(C(=O)[C@@H](NC(=O)N[C@H](C(=O)C3CC3)C3CCCCC3)C3CCCCC3)C[C@@H]21` (some centres unmarked) [compound 4040], the Ki was less than 75 nM.

On to `C#CCCC(NC(=O)[C@@H]1[C@@H]2[C@H](CN1C(=O)[C@@H](NC(=O)N[C@H](C(=O)c1ccccn1)C1CCCCC1)C(C)(C)C)C2(C)C)C(=O)C(=O)NCC=C` (some centres unmarked) [compound 4041], for which the Ki is less than 75 nM.

On to `C#CCCC(NC(=O)[C@@H]1[C@@H]2[C@H](CN1C(=O)[C@@H](NC(=O)N[C@H](C(=O)c1ccccc1)C1CCCCC1)C(C)(C)C)C2(C)C)C(=O)C(=O)NCC=C` (some centres unmarked) [compound 4042], for which the Ki is less than 75 nM.

On to `CC(C)(C)C(=O)CC1(NC(=O)N[C@H](C(=O)N2C[C@H]3[C@@H]([C@H]2C(=O)NC(CC2CC2)C(=O)C(N)=O)C3(C)C)C(C)(C)C)CCCCC1` (some centres unmarked) [compound 4043], for which the Ki is less than 75 nM.

As for `CC(C)(C)[C@H](NC(=O)N[C@H](C(=O)N1C[C@H]2[C@@H]([C@H]1C(=O)NC(CC1CC1)C(=O)C(N)=O)C2(C)C)C(C)(C)C)C(=O)c1ccccc1` (some centres unmarked) [compound 4044], the Ki is less than 75 nM.

For the compound `COc1ccccc1C(=O)[C@@H](NC(=O)N[C@H](C(=O)N1C[C@H]2[C@@H]([C@H]1C(=O)NC(CC1CC1)C(=O)C(N)=O)C2(C)C)C(C)(C)C)C(C)C` (some centres unmarked) [compound 4045], the Ki is less than 75 nM.

On to `CC(C)(C)[C@H](NC(=O)N[C@H](C(=O)c1ccccc1)C1CCC1)C(=O)N1C[C@H]2[C@@H]([C@H]1C(=O)NC(CC1CC1)C(=O)C(N)=O)C2(C)C` (some centres unmarked) [compound 4046], for which the Ki was less than 75 nM.

The same assay, now with this note: Table 8; read-out: Ki*.
Consider `CC(C)(C)[C@H](NC(=O)N[C@H](C(=O)N1C[C@H]2[C@@H]([C@H]1C(=O)NC(CC1CCC1)C(=O)C(N)=O)C2(C)C)C(C)(C)C)C(=O)NCc1ccccc1` (some centres unmarked), for which the Ki worked out at 40 nM.

As to `C=CCNC(=O)C(=O)C(CCC)NC(=O)[C@@H]1[C@@H]2[C@H](CN1C(=O)[C@@H](NC(=O)N[C@H](C(=O)C(C)C)C(C)C)C(C)(C)C)C2(C)C` (some centres unmarked), the Ki turned out to be 30 nM.

On to `CC(C)[C@H](NC(=O)N[C@H](C(=O)N1C[C@H]2[C@@H]([C@H]1C(=O)NC(CC1CC1)C(=O)C(N)=O)C2(C)C)C(C)(C)C)C(=O)N1CCCCC1` (some centres unmarked), for which the Ki is 17 nM.

With `CC(C)(C)[C@H](NC(=O)NC1(C(=O)O)CCCCC1)C(=O)N1C[C@H]2[C@@H]([C@H]1C(=O)NC(CC1CC1)C(=O)C(N)=O)C2(C)C` (some centres unmarked), the Ki came out at 5 nM.

In the case of `CC(C)(C)[C@H](NC(=O)NC1(Cc2cccc(O)c2)CCCCC1)C(=O)N1C[C@H]2[C@@H]([C@H]1C(=O)NC(CC1CC1)C(=O)C(N)=O)C2(C)C` (some centres unmarked), the Ki worked out at 10 nM.

Turning to `CC(C)(C)[C@H](NC(=O)NC1(Cc2ccoc2)CCCCC1)C(=O)N1C[C@H]2[C@@H]([C@H]1C(=O)NC(CC1CC1)C(=O)C(N)=O)C2(C)C` (some centres unmarked), the Ki was 4.3 nM.

The values are drawn from patent publication US7423058B2, “Inhibitors of hepatitis C virus NS3 protease” (Schering Corporation, priority 2004, dated 2008).
